# Reference: the supplement of paper PMC8728848
# The other results are listed elsewhere or left out.
# Tests used:
# Assay in all cases: glycan array binding signal (z-score within array); higher = stronger binding
# Conditions in all cases: glycan notation: IUPAC condensed, linker removed
# GlcNAc(b1-3)Gal = target: GlcNAc(b1-3)Gal
# Procedure, shortened: (§1)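 Glycan array binding is given as a within-array Z-score, which can be read as non-binding when negative. The arrays, 3228 of them, came from the Consortium for Functional Glycomics database and were retained only where the protein sequence was available. Z-scores were averaged across arrays of the same protein sequence at different concentrations or buffers and across linkers.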
# [1] = target: GlcNAc(b1-3)Gal(b1-3)GalNAc
# Procedure, shortened: as §1
# GlcNAc(b1-3)Gal(b1-4)Glc = target: GlcNAc(b1-3)Gal(b1-4)Glc
# Procedure, shortened: as §1
# [2] = target: GlcNAc(b1-3)Gal(b1-4)GlcNAc
# Procedure, shortened: as §1
# [3] = target: GlcNAc(b1-3)Gal(b1-4)GlcNAc(b1-3)Gal(b1-4)GlcNAc
# Procedure, shortened: as §1
# GlcNAc(b1-3)GalNAc = target: GlcNAc(b1-3)GalNAc
# Procedure, shortened: as §1
# GlcNAc(b1-3)Man = target: GlcNAc(b1-3)Man
# Procedure, shortened: as §1
# [4] = target: GlcNAc(b1-3)[GlcNAc(b1-4)][GlcNAc(b1-6)]GlcNAc
# Procedure, shortened: as §1
# [5] = target: GlcNAc(b1-3)[GlcNAc(b1-6)]Gal(b1-4)GlcNAc
# Procedure, shortened: as §1
# [6] = target: GlcNAc(b1-3)[GlcNAc(b1-6)]GalNAc
# Procedure, shortened: as §1
# [7] = target: GlcNAc(b1-3)[GlcNAc(b1-6)]GlcNAc(b1-4)GlcNAc
# Procedure, shortened: as §1
# [8] = target: GlcNAc(b1-4)Gal(b1-4)GlcNAc
# Procedure, shortened: as §1
# GlcNAc(b1-4)GlcNAc = target: GlcNAc(b1-4)GlcNAc
# Procedure, shortened: as §1
# [9] = target: GlcNAc(b1-4)GlcNAc(b1-4)GlcNAc
# Procedure, shortened: as §1
# [10] = target: GlcNAc(b1-4)GlcNAc(b1-4)GlcNAc(b1-4)GlcNAc(b1-4)GlcNAc
# Procedure, shortened: as §1
# [11] = target: GlcNAc(b1-4)GlcNAc(b1-4)GlcNAc(b1-4)GlcNAc(b1-4)GlcNAc(b1-4)GlcNAc
# Procedure, shortened: as §1
# [12] = target: GlcNAc(b1-4)[GlcNAc(b1-6)]GalNAc
# Procedure, shortened: as §1
# [13] = target: GlcNAc(b1-6)Gal(b1-4)GlcNAc
# Procedure, shortened: as §1
# GlcNAc(b1-6)GalNAc = target: GlcNAc(b1-6)GalNAc
# Procedure, shortened: as §1
# GlcNAc3Prop(b1-4)GlcNAc = target: GlcNAc3Prop(b1-4)GlcNAc
# Procedure, shortened: as §1
# [14] = target: GlcNAc6S(b1-3)Gal(b1-4)GlcNAc
# Procedure, shortened: as §1
# Kdn(a2-3)Gal(b1-3)GalNAc = target: Kdn(a2-3)Gal(b1-3)GalNAc
# Procedure, shortened: as §1
# Kdn(a2-3)Gal(b1-3)GlcNAc = target: Kdn(a2-3)Gal(b1-3)GlcNAc
# Procedure, shortened: as §1
# Kdn(a2-3)Gal(b1-4)Glc = target: Kdn(a2-3)Gal(b1-4)Glc
# Procedure, shortened: as §1
# Kdn(a2-3)Gal(b1-4)GlcNAc = target: Kdn(a2-3)Gal(b1-4)GlcNAc
# Procedure, shortened: as §1
# [15] = target: Kdn(a2-3)Gal(b1-4)[Fuc(a1-3)]GlcNAc
# Procedure, shortened: as §1
# Kdn(a2-6)Gal(b1-4)GlcNAc = target: Kdn(a2-6)Gal(b1-4)GlcNAc
# Procedure, shortened: as §1
# [16] = target: Man(a1-2)Man(a1-2)Man(a1-3)Man
# Procedure, shortened: as §1
# [17] = target: Man(a1-2)Man(a1-2)Man(a1-6)[Man(a1-3)]Man
# Procedure, shortened: as §1
# Man(a1-2)Man(a1-3)Man = target: Man(a1-2)Man(a1-3)Man
# Procedure, shortened: as §1
# [18] = target: Man(a1-2)Man(a1-3)[Man(a1-2)Man(a1-6)]Man
# Procedure, shortened: as §1
# [19] = target: Man(a1-2)Man(a1-3)[Man(a1-2)Man(a1-6)]Man(a1-6)[Man(a1-2)Man(a1-2)Man(a1-3)]Man
# Procedure, shortened: as §1
# [20] = target: Man(a1-2)Man(a1-3)[Man(a1-2)Man(a1-6)]Man(a1-6)[Man(a1-2)Man(a1-2)Man(a1-3)]Man(b1-4)GlcNAc(b1-4)GlcNAc
# Procedure, shortened: as §1
# [21] = target: Man(a1-2)Man(a1-3)[Man(a1-6)]Man(a1-6)[Man(a1-2)Man(a1-3)]Man(b1-4)GlcNAc(b1-4)GlcNAc
# Procedure, shortened: as §1
binder,measurement,setting,value
"F17aG (Escherichia coli), Q99003 (protein) MTNFYKVFLAVFILVCCNISQAAVSFIGSTENDVGPSLGSYSRTHAMDNLPFVYDTRNKIGYQNANVWHISKGFCVGLDGKVDLPVVGSLDGQSIYGLTEEVGLLIWMGDTKYSRGTAMSGNSWENVFSGWCVGANTASTQGLSVRVTPVILKRNSSARYSVQKTSIGSIRMRPYNGSSAGSVQTTVNFSLNPFTLNDTVTSCRLLTPSAVNVSLAAISAGQLPSSGDEVVAGTTSLKLQCDAGVTVWATLTDATTPSNRSDILTLTGASTATGVGLRIYKNTDSTPLKFGPDSPVKGNENQWQLSTGTETSPSVRLYVKYVNTGEGINPGTVNGISTFTFSYQ",glycan array binding signal (z-score),GlcNAc(b1-3)Gal,3.9
same,glycan array binding signal (z-score),[1],0.307
same,glycan array binding signal (z-score),GlcNAc(b1-3)Gal(b1-4)Glc,8.79
same,glycan array binding signal (z-score),[2],4.77
same,glycan array binding signal (z-score),[3],0.427
same,glycan array binding signal (z-score),GlcNAc(b1-3)GalNAc,0.898
same,glycan array binding signal (z-score),GlcNAc(b1-3)Man,-0.036
same,glycan array binding signal (z-score),[4],-0.1
same,glycan array binding signal (z-score),[5],5.68
same,glycan array binding signal (z-score),[6],1.32
same,glycan array binding signal (z-score),[7],2.15
same,glycan array binding signal (z-score),[8],0.526
same,glycan array binding signal (z-score),GlcNAc(b1-4)GlcNAc,-0.171
same,glycan array binding signal (z-score),[9],-0.03
same,glycan array binding signal (z-score),[10],-0.231
same,glycan array binding signal (z-score),[11],-0.069
same,glycan array binding signal (z-score),[12],0.015
same,glycan array binding signal (z-score),[13],0.342
same,glycan array binding signal (z-score),GlcNAc(b1-6)GalNAc,0.507
same,glycan array binding signal (z-score),GlcNAc3Prop(b1-4)GlcNAc,11.7
same,glycan array binding signal (z-score),[14],-0.17
same,glycan array binding signal (z-score),Kdn(a2-3)Gal(b1-3)GalNAc,-0.169
same,glycan array binding signal (z-score),Kdn(a2-3)Gal(b1-3)GlcNAc,-0.246
same,glycan array binding signal (z-score),Kdn(a2-3)Gal(b1-4)Glc,-0.177
same,glycan array binding signal (z-score),Kdn(a2-3)Gal(b1-4)GlcNAc,-0.249
same,glycan array binding signal (z-score),[15],-0.154
same,glycan array binding signal (z-score),Kdn(a2-6)Gal(b1-4)GlcNAc,-0.152
same,glycan array binding signal (z-score),[16],-0.211
same,glycan array binding signal (z-score),[17],-0.257
same,glycan array binding signal (z-score),Man(a1-2)Man(a1-3)Man,-0.24
same,glycan array binding signal (z-score),[18],-0.114
same,glycan array binding signal (z-score),[19],-0.064
same,glycan array binding signal (z-score),[20],-0.03
same,glycan array binding signal (z-score),[21],-0.24
